Test results from paper PMC4336329 (PLoS ONE, 2015).
The whole screen tested about 310,000 compounds, of which about 14,000 (4.5%) showed an effect of 50% or more. Effects have a minus sign here. Some of the results follow.

molecular target: human ether-à-go-go-related gene (hERG) potassium channel (human, UniProt Q12809); assay: primary screen, population patch clamp on CHO cells stably expressing hERG
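Further: peak tail current of the secondary pulse compared with the same well before compound.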

Chain of human ether-à-go-go-related gene (hERG) potassium channel (Q12809 whole entry, looked up): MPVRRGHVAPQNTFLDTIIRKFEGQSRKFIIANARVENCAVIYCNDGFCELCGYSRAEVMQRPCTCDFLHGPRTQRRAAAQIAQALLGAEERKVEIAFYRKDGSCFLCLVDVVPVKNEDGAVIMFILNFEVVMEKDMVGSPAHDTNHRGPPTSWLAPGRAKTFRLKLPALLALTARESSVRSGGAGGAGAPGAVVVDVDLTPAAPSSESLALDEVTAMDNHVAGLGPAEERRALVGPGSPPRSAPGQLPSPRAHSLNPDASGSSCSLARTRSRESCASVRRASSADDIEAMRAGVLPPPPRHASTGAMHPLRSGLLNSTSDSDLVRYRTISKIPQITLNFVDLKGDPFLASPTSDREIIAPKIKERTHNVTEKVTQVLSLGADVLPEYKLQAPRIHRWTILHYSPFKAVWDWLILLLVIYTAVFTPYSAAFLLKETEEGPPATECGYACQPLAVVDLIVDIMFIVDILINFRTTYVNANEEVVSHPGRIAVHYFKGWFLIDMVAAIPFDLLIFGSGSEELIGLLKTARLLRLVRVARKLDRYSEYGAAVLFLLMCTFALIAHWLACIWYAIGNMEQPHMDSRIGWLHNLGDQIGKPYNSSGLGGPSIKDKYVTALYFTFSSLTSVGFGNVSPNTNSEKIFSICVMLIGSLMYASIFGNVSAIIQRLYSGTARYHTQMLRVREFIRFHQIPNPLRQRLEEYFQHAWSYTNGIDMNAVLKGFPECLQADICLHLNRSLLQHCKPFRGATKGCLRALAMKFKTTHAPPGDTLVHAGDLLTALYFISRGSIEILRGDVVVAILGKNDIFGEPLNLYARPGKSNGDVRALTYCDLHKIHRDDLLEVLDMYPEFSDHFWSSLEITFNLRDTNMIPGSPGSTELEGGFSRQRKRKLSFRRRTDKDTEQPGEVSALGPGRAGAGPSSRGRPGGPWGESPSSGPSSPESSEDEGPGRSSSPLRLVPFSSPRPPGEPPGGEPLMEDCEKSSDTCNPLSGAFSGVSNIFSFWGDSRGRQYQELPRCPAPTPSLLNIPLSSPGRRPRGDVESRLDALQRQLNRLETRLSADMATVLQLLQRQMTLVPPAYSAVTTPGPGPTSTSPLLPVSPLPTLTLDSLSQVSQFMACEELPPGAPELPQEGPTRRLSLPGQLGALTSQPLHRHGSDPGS

SMILES | hERG current change (%, negative = inhibition) at 10uM [%]
Cc1ccc(CN2CCC(n3nccc3NC(=O)c3ccccc3C)CC2)o1 | -25.9
Cc1ccc(S(=O)(=O)N(Cc2ccccc2)c2ccccn2)cc1[N+](=O)[O-] | -12.1
O=C(O)COc1c(-c2ccc(Cl)cc2)oc2ccccc2c1=O | 11.3
Cc1ccc(NC(=O)CN(C)C(=O)CSc2nncn2C)cc1 | 1.44
Cc1cc(C)cc(N(CC(=O)NC2CCCC2)C(=O)C2(C)CC(=O)N=C3C=CC=CN32)c1 (stereo not drawn) | 22.8
Nc1nnnn1/N=C/c1ccccn1 | -11.9
COc1cccc(/C=C2\C(=O)C(=O)c3ccccc32)c1 | -0.348
Cc1nc2c(C(=O)N3CCOCC3)cnn2c(C)c1Cc1ccc(Cl)cc1 | -33
CC(C)(C)NS(=O)(=O)c1ccc(NC(=O)C2CCCCC2)cc1 | 11.2
Cc1ccc(/C=N/NC(=O)CSc2ccccn2)o1 | 12.2
Cc1ccc(C2=NOC(C)(c3sc(-c4ccc(Cl)cc4)nc3C)C2)cc1 (stereo not drawn) | 6.62
COc1cc(CNCc2ccc(Br)cc2)cc(OC)c1.O=C(O)C(=O)O | -32.3
CC(=O)N1CCc2c(sc(NC(=O)Cc3ccccc3)c2C(N)=O)C1 | 13.5
Cc1ccc(C)c(NC(=O)CSc2nnc(-c3n[nH]c4ccccc34)o2)c1 | -17.5
COc1ccc(C)cc1S(=O)(=O)Nc1cc2c3c(c1)CCN3C(=O)CC2 | -16.8
C=CCCC(=O)N1CCC(n2nccc2NC(=O)c2ccc(OC)cc2)CC1 | -9.74
CC1(C)CC(=O)C(C=Nc2ccc(N)cc2)=C(O)C1 | 7.79
Cc1[nH]n(-c2ncc(-c3ccccc3)s2)c(=O)c1C(c1ccc(Br)cc1)C(C#N)C#N (stereo not drawn) | 18.1
COc1ccc(OC)c(NC(=O)CCc2c[nH]c3ccccc23)c1 | 5.27
Cc1cc(C)n(CC(=O)c2ccc(Br)cc2)c(=O)c1C#N | -18.9
Cc1cccc(N/C(N)=N/c2nc(C)c(Cc3ccccc3)c(=O)[nH]2)c1 | 41.8
CC1(c2ccccc2)NC(=O)N(CC(=O)Nc2cccc(/C=C/c3ccccn3)c2)C1=O (stereo not drawn) | -8.36
CCCCCCCCOC(=O)C1=C(C)Nc2nnnn2C1c1cccs1 (stereo not drawn) | -0.187

SMILES | hERG current change (%, negative = inhibition) at 10uM [%]
COc1cc(F)ccc1S(=O)(=O)n1c(C)nc2ccccc21 | -13.9
NC(=O)c1ccccc1N/C=C/C(=O)c1cccs1 | -5.51
COc1cc(C)c(CN2CCN(c3ncccn3)CC2)cc1C | -13.3
CCOc1cc(C2C(C#N)=C(N)Oc3c2c(=O)oc2ccccc32)ccc1OC(=O)c1cccs1 (stereo not drawn) | 5.19
Fc1ccc(NC(=S)N2CCN(c3ncccn3)CC2)cc1 | 19.4
COC(=O)Cc1cnc(NC(=O)C2C3CCC(C3)C2C(=O)O)s1 (stereo not drawn) | -3.03
Cc1ccc(C)c(N2CCN(CCCNC(=O)Cn3cc4c(n3)CCCCC4)CC2)c1 | -69.3
COc1cc(C2C(C#N)=C(N)Oc3c2oc(CO)cc3=O)cc(OC)c1OC (stereo not drawn) | 12.9
COCCn1c(C)cc(C(=O)COC(=O)c2cccc(O)c2)c1C | -12.1
Cc1cccc(N2CCN(C(=O)N3CCCCC3)CC2)c1C | -7.94
CCOC(=O)CSc1nnc(NC(=O)CN2CCN(C=O)CC2)s1 | 8.08
Cc1ccccc1NP(=O)(c1ccccc1)c1nc2ccccc2s1 (stereo not drawn) | 8.67
COc1ccc(NS(=O)(=O)c2ccc(N3CCCC3)c(NC(=S)Nc3cccc(S(=O)(=O)N(C)C)c3)c2)cc1 | 18.1
Cc1ccc(C)c(SCC(=O)OCC(=O)Nc2ncc(C(F)(F)F)cc2Cl)c1 | 17.6
CN1CCN(c2ccc(NC(=S)NC(=O)c3cccc4ccccc34)cc2)CC1 | -51
COc1ccc(-c2nc3ccccc3c(=O)n2CCc2ccc(O)cc2)cc1 | -25.4
Cc1ccc(Cn2cnc3c(cnn3-c3ccc(F)cc3)c2=O)cc1 | 9.31
COC(=O)CSc1ccc(C#N)c(SCC(=O)OC)c1 | 12.5
CCC(Sc1ncnc2sc(C)c(C)c12)C(=O)OC (stereo not drawn) | -2.58
CCCCN1/C(=C/c2cccc[n+]2C)Sc2cc(NC(C)=O)ccc21.[I-] | 16.9
CC(C)Cc1ccc(CN2CCCC(NC(=O)c3ccnn3C)C2)cc1 (stereo not drawn) | -68.7
COCCN(C(=O)COC(=O)Cc1c[nH]c2ccccc12)c1c(N)n(Cc2ccccc2)c(=O)[nH]c1=O | 16.6
